The IC50 comes from the fitted curve, where viability falls to half of the control; a limit (>, <) means that the fit lies beyond the doses tested. The AUC spans the tested range (256-fold, ending at the top dose) of the same fit; it is 1 without any effect and falls as sensitivity rises. For some of these results: An inferred top dose was calculated from the reported fits.
How the values were obtained:
Assay in all cases: Viability of human cancer cell lines after 72 h of drug (GDSC screen)
ABT-263 = compound: CC1(C)CCC(c2ccc(Cl)cc2)=C(CN2CCN(c3ccc(C(=O)NS(=O)(=O)c4ccc(N[C@H](CCN5CCOCC5)CSc5ccccc5)c(S(=O)(=O)C(F)(F)F)c4)cc3)CC2)C1 [ABT-263]; settings: top dose 2 µM; top dose inferred
Method: (§1)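 Human cancer cell lines in 384-well plates, medium with 10% serum, drug for 72 h over a 256-fold dose range (nine 2-fold or five 4-fold steps up to the top dose). Adherent lines were fixed and stained with the nucleic acid dye Syto60, suspension lines read with resazurin; signal relative to control wells, capped at 0 and 100%. One two-parameter sigmoid per drug and line, fitted in a mixed model over all curves with the slope shared within a line.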

piperlongumine = compound: COc1cc(/C=C/C(=O)N2CCC=CC2=O)cc(OC)c1OC [piperlongumine]; settings: top dose 10 µM
Method: as §1

PIK-93 = compound: CC(=O)Nc1nc(C)c(-c2ccc(Cl)c(S(=O)(=O)NCCO)c2)s1 [PIK-93]; settings: top dose 20 µM
Method: as §1

GW 441756 = compound: Cn1cc(/C=C2\C(=O)Nc3cccnc32)c2ccccc21 [GW 441756]; settings: top dose 2 µM; top dose inferred
Method: as §1

Row | Cell Line | AUC (ABT-263) | IC50 (ABT-263) [µM] | AUC (piperlongumine) | IC50 (piperlongumine) [µM] | AUC (PIK-93) | IC50 (PIK-93) [µM] | AUC (GW 441756) | IC50 (GW 441756) [µM]
1 | 786-0 (kidney, adherent) | 0.985 | > 2 | 0.682 | 1.93 | 0.896 | > 20 | – | –
2 | A172 (glioma, adherent) | 0.987 | > 2 | 0.767 | 3.59 | 0.876 | 18.6 | – | –
3 | A673 (rhabdomyosarcoma, adherent) | 0.988 | > 2 | 0.677 | 1.83 | 0.921 | > 20 | – | –
4 | ASH-3 (thyroid, adherent) | 0.986 | > 2 | 0.793 | 4.57 | 0.981 | > 20 | – | –
5 | BCPAP (thyroid, adherent) | 0.919 | > 2 | 0.733 | 2.68 | 0.674 | 3.62 | – | –
6 | BHY (head and neck, adherent) | 0.955 | > 2 | 0.725 | 2.73 | 0.814 | 10.9 | – | –
7 | BPH-1 (prostate, adherent) | 0.929 | > 2 | 0.739 | 3.28 | 0.57 | 1.98 | – | –
8 | CAL-54 (kidney, adherent) | 0.958 | > 2 | 0.81 | 6.23 | 0.919 | > 20 | – | –
9 | CHP-134 (neuroblastoma, suspension) | 0.525 | 0.149 | – | – | 0.836 | 18.7 | – | –
10 | ChaGo-K-1 (non-small cell lung carcinoma, adherent) | 0.962 | > 2 | 0.701 | 2.55 | 0.877 | > 20 | – | –
11 | G-MEL (melanoma, adherent) | – | – | 0.663 | 1.76 | 0.87 | 18.2 | 0.867 | 1.76
12 | GAMG (glioma, adherent) | 0.906 | > 2 | 0.812 | 5.68 | 0.729 | 5.83 | – | –
13 | H2591 (mesothelioma, adherent) | 0.953 | > 2 | 0.806 | 7.01 | 0.842 | > 20 | – | –
14 | H2722 (mesothelioma, adherent) | – | – | 0.791 | 5.46 | 0.9 | > 20 | 0.76 | 0.83
15 | HCC38 (breast, adherent) | – | – | 0.865 | > 10 | 0.834 | 14.5 | 0.984 | > 2
16 | HCC70 (breast, adherent) | – | – | 0.772 | 3.8 | 0.753 | 6.6 | 0.986 | > 2
17 | HCC1806 (breast, adherent) | 0.913 | > 2 | 0.77 | 3.49 | 0.889 | 19.7 | – | –
18 | HLE (liver, adherent) | 0.963 | > 2 | 0.683 | 1.97 | 0.796 | 8.75 | – | –
19 | HMV-II (melanoma, adherent) | – | – | 0.805 | 6.44 | 0.855 | > 20 | 0.918 | > 2
20 | HOP-92 (large cell lung carcinoma, adherent) | – | – | 0.734 | 3.27 | 0.961 | > 20 | 0.939 | > 2
21 | HSC-4 (head and neck, adherent) | – | – | 0.686 | 2.49 | 0.906 | > 20 | 0.774 | 1.06
22 | IGR-37 (melanoma, adherent) | 0.983 | > 2 | 0.708 | 2.27 | 0.795 | 8.35 | – | –
23 | JHH-6 (liver, adherent) | – | – | 0.761 | 3.59 | 0.891 | > 20 | 0.98 | > 2
24 | KYSE-70 (oesophagus, adherent) | – | – | 0.959 | > 10 | 0.911 | > 20 | 0.955 | > 2
25 | LN-229 (glioma, adherent) | – | – | 0.652 | 1.64 | 0.972 | > 20 | 0.988 | > 2
26 | M14 (melanoma, adherent) | – | – | 0.809 | 5.56 | 0.768 | 7.89 | 0.987 | > 2
27 | MCF7 (breast, adherent) | – | – | 0.782 | 4.35 | 0.986 | > 20 | 0.935 | > 2
28 | MDA-MB-157 (breast, adherent) | 0.91 | > 2 | 0.788 | 4.52 | 0.979 | > 20 | – | –
29 | MDA-MB-175-VII (breast, adherent) | – | – | 0.861 | 9.95 | 0.851 | 17.9 | 0.906 | > 2
30 | MDA-MB-436 (breast, adherent) | – | – | 0.662 | 2 | 0.831 | 17.5 | 0.907 | > 2
